# Hit rate of the full screen: of about 48,000 compounds, about 120 (0.25%) were called active. Inconclusive results (about 4%) are left out. Calls follow the shape of the dose curve; as a rule, active = well fitted activation curve with a large enough effect; inconclusive = small, poorly fitted or top-dose-only effect, or another doubt; inactive = no such curve, though single readings can be large or run the other way. Some of the results follow.
# Assay: Primary qHTS for Identification of Small Molecule Activators of Huntingtin-Antisense Promoter Activity; also: nearly all actives have a fitted effect of over 55% in size
# Details: HEK293 HTT-AS promoter firefly luciferase reporter (activity 0% = vehicle and -100% = no light), 24 h; series mostly up to 57.5 µM; activity change, positive = activation: at the top concentration
# Outline: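 Quantitative HTS used concentration series of up to 57.5 uM final on HEK293 luciferase reporter cells, 24 h at 37 degrees C. Readout was Dual-Glo firefly luminescence.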
row,Compound,"activity change, positive = activation"
1,Cc1ccccc1C(=O)Nc1nnc(S(=O)(=O)N(C)Cc2ccc(Cl)cc2)s1,inactive: -32.1%
2,O=C(Cc1ccc(F)cc1)N1CCC(c2nc3c(nnn3Cc3ccc(F)cc3)c(=O)[nH]2)CC1,inactive: -20.3%
3,COc1ccc(OCC(=O)Nc2ccc(O)c(-c3nc4ccccc4s3)c2)cc1,inactive: 8.58%
4,CCCn1c(=O)c2sccc2n2c(CCCC(=O)Nc3ccccc3OCC)nnc12,inactive: -3.22%
5,COc1ccc(CC(=O)N2CC(=O)Nc3ccc(Br)cc3C2c2ccc(F)cc2)cc1 (stereo unspecified),inactive: -18.4%
6,Cc1ccc(CN(C(=O)COc2ccc(C(C)C)cc2)C2CCS(=O)(=O)C2)o1 (stereo unspecified),inactive: -16.5%
7,CCCCNc1nc(Oc2ccc(OCCC)nn2)nc(N(C)C)n1,inactive: -8.68%
8,COc1ccc(OC)c(CCNC(=O)CN2C(=O)COc3ccc(S(=O)(=O)N4CCC(C)CC4)cc32)c1,inactive: -23.2%
9,O=C(CCSCc1ccccc1F)N1CCN(c2ccc(Cl)cc2)CC1,inactive: -20.8%
10,CCCN1CCN(CCNC(=O)Nc2cc(C)ccc2OC)CC1,inactive: 0.838%
11,COc1cc2c(C(=O)Nc3ccc(C)cc3Br)cn(C)c(=O)c2cc1OC,inactive: -14.6%
12,CCOC(=O)c1ccc(NC2=CC(c3ccc(O)c(OCC)c3)N(c3ccc(C(=O)OCC)cc3)C2=O)cc1 (stereo unspecified),inactive: -0.895%
13,CCOc1ccccc1NC(=O)c1sc2nc(-c3ccc(OC)cc3)ccc2c1N,inactive: 7.56%
14,CCC1CCCCN1CCCNC(=O)c1c(O)nc2c(C)cccn2c1=O (stereo unspecified),inactive: -1.3%
15,COc1ccc(-n2c(/C=C/c3cccc4ccccc34)nc3ccccc3c2=O)cc1Cl,inactive: -8.01%
16,Cc1cccc(N2CCN(C(=O)c3c(C)oc4ncnc(N5CCOCC5)c34)CC2)c1C,inactive: -7.35%
17,Nc1cc(=O)nc(SCC(=O)Nc2ccc(F)cc2)n1-c1cccc(Cl)c1,inactive: -7.26%
18,COc1ccc(C)cc1NC(=O)c1cc(S(=O)(=O)N2CCC(C)CC2)cn1C,inactive: -11.3%
19,COc1ccc(CCN2C(=O)N(c3ccc(C)cc3)C(=O)C2CC(=O)Nc2ccc(F)cc2)cc1 (stereo unspecified),inactive: -27.9%
20,Cc1nn(C(=O)COc2ccccc2Br)c(C)c1Sc1ccccc1,inactive: 0%
21,CCc1ccc(NC(=O)C(NS(=O)(=O)c2cccc3nsnc23)c2ccccc2)cc1 (stereo unspecified),inactive: -11.5%
22,CS(=O)(=O)c1ccc(C2=C(c3ccccc3)C(=O)OC2)cc1,inactive: -8.29%
23,O=C(CSc1n[nH]c(-c2ccccc2)n1)N1CCN(c2ccccc2F)CC1,inactive: -20.9%

row,Compound,"activity change, positive = activation"
1,COc1cccc(NC(=O)c2sc3nc(C)c(C(=O)Nc4ccc(Cl)cc4)c(-c4ccc(Br)cc4)c3c2N)c1,inactive: -13.6%
2,Cn1c(=O)c2[nH]cnc2n(C)c1=O,inactive
3,Cc1cccc(NC(=O)c2sc3nc(-c4ccccc4)cn3c2C)c1C,inactive: 25.6%
4,COc1ccc2c(CNCc3ccccc3OC)c(C(=O)O)n(Cc3ccc(F)cc3Cl)c2c1,inactive: -0.0964%
5,CCc1ccc(NC(=O)C2CCC(CNS(=O)(=O)c3ccc4c(c3)C(C)(C)C(=O)N4C)CC2)cc1 (stereo unspecified),inactive: -14.1%
6,Cc1ccc(Cl)cc1NC(=O)N1CCC2(CC1)Oc1ccccc1C(=O)N2Cc1ccccc1F,inactive: -19.7%
7,CCS(=O)(=O)N1CC(=O)N(c2cc(C)ccc2C)C(C)(C(=O)NC2CCCCC2)C1 (stereo unspecified),inactive: -7.16%
8,Cc1cccc(NC(=O)C(=O)NCCc2sc(-c3ccccc3)nc2C)c1C,inactive: 2.47%
9,Cc1c(Cl)cccc1NC(=O)C(CCS(C)(=O)=O)N1Cc2ccccc2C1=O (stereo unspecified),inactive: -4.24%
10,COc1ccc(-c2cn3c(n2)sc2cc(C(=O)NC4CCCCCC4)ccc23)cc1,inactive: 5.71%
11,CC(=O)c1c(C)oc2ccc(N(C(=O)Oc3ccccc3)S(=O)(=O)c3ccccc3)cc12,inactive: -35.2%
12,Cc1ccc(S(=O)(=O)c2c(Nc3cc(C)ccc3C)sc(C(=O)c3ccc4c(c3)OCO4)c2N)cc1,inactive: -18.7%
13,CC(CNC(=O)c1cc(-c2ccccc2)n[nH]1)c1ccccc1 (stereo unspecified),inactive: 14.5%
14,CC1CCCN(c2c(S(=O)(=O)c3ccccc3)cnc3ccc(Cl)cc23)C1 (stereo unspecified),inactive: -1.65%
15,O=C(c1ccc(F)cc1)N1CCC(c2nc(-c3ccc(S(=O)(=O)N4CCCC4)cc3)no2)CC1,inactive: -2.86%
16,C[C@@]12C(=O)OC(=O)[C@@]1(C)C1CCC2O1,inactive: -49.2%
17,COc1ccccc1N(CC(=O)Nc1ccc2c(c1)OCO2)S(=O)(=O)c1ccc(C)cc1,inactive: -16.5%
18,O=C(Cn1cnc2onc(-c3ccc(F)cc3)c2c1=O)Nc1ccc(F)c(Cl)c1,inactive: -29.5%
19,O=C(CN1c2ccccc2S(=O)(=O)c2ccccc21)Nc1ccccc1Cl,inactive: -27.8%
20,CCOc1ccc(S(=O)(=O)c2cn(Cc3ccccc3C)c3ccc(OC)cc3c2=O)cc1,inactive: -15.5%
21,CCc1nn(CC(=O)NCCCN2CCN(CC)CC2)c(=O)c2cc3occc3n12,inactive: -7.4%
22,CCCOc1ccc(-c2nonc2NC(=O)c2oc3ccc(Cl)cc3c2C)cc1OCCC,inactive: 8.07%
23,O=C(c1ccc2c(c1)N(Cc1c(F)cccc1Cl)C(=O)c1ccccc1S2)N1CCOCC1,inactive: -19.3%
